Results on one molecule are retold here after paper PMC5550695.

Results are given in words; binding and its absence hold for the method and conditions named. In cells and extracts the contact can be indirect. Some entries that bind do so weakly or less than the wild type. Where a sequence is shown, tags or fusion partners need not be part of it.

The test deals with T1, Arabidopsis MKKK20, split-YFP fusion for BiFC (Arabidopsis thaliana) (UniProt Q9SND6).
T1 sequence: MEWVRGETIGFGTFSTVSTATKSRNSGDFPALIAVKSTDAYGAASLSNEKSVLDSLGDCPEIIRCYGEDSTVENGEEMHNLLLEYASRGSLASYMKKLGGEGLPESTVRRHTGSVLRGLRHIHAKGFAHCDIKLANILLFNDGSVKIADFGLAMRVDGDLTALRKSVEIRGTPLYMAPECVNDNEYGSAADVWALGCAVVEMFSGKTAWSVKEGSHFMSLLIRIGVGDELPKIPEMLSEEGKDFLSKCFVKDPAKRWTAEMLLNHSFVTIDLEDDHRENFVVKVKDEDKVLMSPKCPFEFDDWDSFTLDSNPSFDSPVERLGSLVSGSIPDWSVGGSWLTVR
The experiment in a line: split reporter; BiFC with split YFP (pUC-SPYCE / pUC-SPYNE) in onion epidermal cells, transient transformation by microparticle bombardment, fluorescence microscopy.

B1: Arabidopsis MPK18, split-YFP fusion for BiFC (enzyme, UniProt Q9C5C0 1-615)
chain: MQQNQVKKGTKEMEFFTEYGDANRYRILEVIGKGSYGVVCAAIDTHTGEKVAIKKINDVFEHISDALRILREVKLLRLLRHPDIVEIKSIMLPPSKREFKDIYVVFELMESDLHQVIKANDDLTREHHQFFLYQMLRALKFMHTANVYHRDLKPKNILANANCKLKVCDFGLARVAFNDTPTTVFWTDYVATRWYRAPELCGSFFSKYTPAIDVWSIGCIFAEVLTGKPLFPGKSVVHQLELITDLLGTPKSETISGVRNDKARKYLTEMRKKNPVTFSQKFSKADPLALRLLQRLLAFDPKDRPTPAEALADPYFKGLSKIEREPSSQQISKMEFEFERRRLTKDDIRELIYREILEYHPQLLKDYMSGSEGSNFVYPSAIGHLRQQFTYLEENSSRNGPVIPLERKHASLPRSTVHSTVVHSTSQPNLGATDSRRVSFEPSKNGASSAGHPSTSAYPTKSIGPPPRVPPSGRPGRVVESSVSYENGRNLKEAYFRSAVSSPHCYFRPNTMTNPENRNIEASSFPPKPQNPVHQFSPTEPPAATTNQADVETMNHPNPYFQPQLPKTDQLNNNTHMAIDAKLLQAQSQFGPAGAAAVAVAAHRNIGTISYSAAS
For the molecule B1, the binding result was “binds”.
